# Reference: PubChem BioAssay AID686978 (National Center for Advancing Translational Sciences (NCATS), 2013)
# About 64,000 (15%) of roughly 420,000 compounds were called active. This list was built around the results that the source calls inconclusive (neither active nor inactive); the mix of calls is not that of the screen. The call rests on the fitted dose curve; in most records, active means well fitted inhibition curve with a large enough effect; inconclusive means small, poorly fitted or top-dose-only effect; inactive means flat fitted curve, though single readings scatter. No potency is given beside an inconclusive call; the fits are too rough.
# Experiment: qHTS for Inhibitors of human tyrosyl-DNA phosphodiesterase 1 (TDP1): qHTS in cells in absence of CPT; further: nearly all actives have a fitted effect of over 55% in size
# Conditions: DT40 Tdp1-/- hTDP1 cells, no CPT, ATP luminescence, 48 h; activity change, negative = growth inhibition: at 46.2 µM (top of the series)
# Summary of the method: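 Chicken DT40 Tdp1-/- cells complemented with human TDP1, screened without camptothecin (DMSO vehicle only), 400 cells/well. Compounds pin-transferred, cells incubated at 37 °C for at least 48 hr. Growth read as ATP-dependent luminescence (CellTiter-Glo, 30 min at RT).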
# On the % scale 0 is the no-effect control and ±100 the full control effect; potency means the concentration at half of the fitted maximal effect; tags describe the fitted curve by direction and shape.
SMILES,Potency,"activity change, negative = growth inhibition"
CC(C)CCNC(=O)c1ccc(NC(=O)C2=CSCCO2)cc1,"inconclusive [inhibitor, full curve, poor fit]",–
O=C(Nc1ccc([N+](=O)[O-])cc1)NN1CCCCCC1,active: 14.6 µM,–
Cc1ccc(NC(=O)C(=O)NCc2ccc(/C=C(/C#N)C(=O)NCc3cccnc3)o2)cc1,–,inactive: -22.5%
Clc1ccc(Nc2nc(C3CC3)cs2)cc1,–,inconclusive: -30.3% [inhibitor]
COCCCN(C(=O)c1ccco1)c1nc(-c2ccc(OC)cc2)cs1,active: 20.6 µM,–
COC(=O)N/N=C/c1cn(CCOc2ccccc2)c2ccccc12,"inconclusive [inhibitor, single point]",–
CCOc1nc(C)ccc1-c1noc(-c2ccccc2OC)n1,"inconclusive [inhibitor, partial curve]",–
CCc1ccccc1N1CC(c2nc3ccccc3n2CCCOc2ccc(Cl)cc2)CC1=O (stereo not drawn),–,inactive: -13.8%
CCc1ccc(/C=N/n2c(C3CCCCC3)n[nH]c2=S)cc1,"inconclusive [inhibitor, single point]",–
COc1ccc(C2CC(c3ccc(Br)cc3)=NN2C(=O)CSC2=NCCS2)cc1 (stereo not drawn),active: 16.4 µM,–
Cc1cc(Cl)ccc1OCC(=O)N1CCN(c2ncccn2)CC1,"inconclusive [inhibitor, partial curve]",–
Cc1ccc(NC(=O)COC(=O)c2cc(Cl)cc(Cl)c2)c(Br)c1,"inconclusive [inhibitor, single point]",–
CC(C)CN(C)C(=O)CCc1nnc(Cc2ccc(-c3ccccc3)cc2)o1,active: 11.6 µM,–
O=C(Nc1cc(C(F)(F)F)ccc1N1CCCCC1)c1cccc([N+](=O)[O-])c1,active: 16.4 µM,–
COc1ccc(C2CC(=O)Nc3cc(C)c(C)cc32)c(OC)c1OC (stereo not drawn),active: 20.6 µM,–
O=C(CCOc1ccccc1)N(Cc1cccnc1)c1nc2c(F)cc(F)cc2s1,active: 25.9 µM,–
COc1ccc(NC(=O)CC2C(=O)N(Cc3ccccc3)C(=S)N2CCN2CCOCC2)cc1 (stereo not drawn),"inconclusive [inhibitor, partial curve]",–
Cc1cc(C(=O)COc2ccc(-c3nnco3)cc2)c(C)n1Cc1ccccc1,"inconclusive [inhibitor, single point]",–
CCOc1ccc(NC(=O)C(CC)n2c(=O)c(-c3ccccc3NC(C)=O)nc3ccccc32)cc1 (stereo not drawn),"inconclusive [inhibitor, single point]",–
COc1cc(C2(c3ccc(O)c(OC)c3)C(=O)N(C)c3ccc(Br)cc32)ccc1O,–,inactive: -15.4%
Cc1ccc(CN2CCN(CC(C)C)C(CCO)C2)s1 (stereo not drawn),–,inactive: -15.1%
Cc1ccc(C(=O)OCC(=O)NC2CCCCC2)s1,–,inactive: -5.99%
Cc1ccc(CNC(=O)Cn2cc(S(=O)(=O)Cc3ccccc3Cl)c3ccccc32)cc1,active: 14.6 µM,–
COCCNC(=O)C(C#N)c1nc2ccccc2nc1N1CCCCCC1 (stereo not drawn),–,inactive: -11.7%
CC1(c2cccc(Br)c2)NC(=O)N(CC(=O)Nc2cccnc2Cl)C1=O (stereo not drawn),–,inactive: -1.67%

SMILES,Potency,"activity change, negative = growth inhibition"
Cc1c(N(C)S(=O)(=O)c2cccc(C(=O)NC(C)C)c2)c(=O)n(-c2ccccc2)n1C,–,inactive: -12.4%
COc1ccccc1OCCSc1nc(-c2ccc(C(C)(C)C)cc2)nc2cc(=O)[nH]n12,"inconclusive [inhibitor, single point]",–
O=C(/C=C/c1ccc(-c2ccccc2)o1)c1ccccc1,"inconclusive [inhibitor, single point]",–
Cc1noc(C)c1-c1cc(NC2CCNCC2)ncn1,"inconclusive [inhibitor, partial curve]",–
COc1ccc(-c2nnc(NC(=O)C3CC3)o2)cc1,"inconclusive [inhibitor, single point]",–
O=C(N/N=C/C(Cl)=C/c1ccc([N+](=O)[O-])cc1)C(=O)Nc1ccccc1C(=O)O,active: 8.2 µM,–
COc1ccccc1-n1cnnc1SC(C)C(=O)NCC1CCCO1 (stereo not drawn),"inconclusive [inhibitor, single point]",–
COc1ccc(Cl)c2sc(N3CCN(C(=O)c4ccco4)CC3)nc12,"inconclusive [inhibitor, single point]",–
O=C(Nc1ccc(S(=O)(=O)NCC2CCCO2)cc1)c1cnccn1 (stereo not drawn),–,inconclusive: -31.5% [inhibitor]
CC1=C(C(=O)N2CCCCCC2)CC(CC(=O)NC2CCCCC2)C(=O)N1Cc1ccccc1 (stereo not drawn),"inconclusive [inhibitor, single point]",–
COc1cc(OC)c(NC(=O)N2CCSc3ccccc32)cc1Cl,"inconclusive [inhibitor, single point]",–
Cc1ccc(CCNC(=O)C2CCN(S(=O)(=O)c3ccc4nc5c(c(C(=O)O)c4c3)CCCC5)CC2)cc1,–,inactive: -27.3%
Fc1ccc(-n2ncc3c(NC4CCCCCC4)ncnc32)cc1,active: 23.1 µM,–
CCOC(CNC(=O)c1ccc2nc(N3CCC(C)CC3)sc2c1)OCC,"inconclusive [inhibitor, single point]",–
O=C(O)CC/C=C\CC[C@@H]1[C@@H](N2CCCCC2)[C@@H](O)C[C@@H]1OCc1ccc(-c2ccccc2)cc1,"inconclusive [inhibitor, single point]",–
COCCN(CCOC)c1nc(-c2ccccc2)nc2ccccc12,"inconclusive [inhibitor, single point]",–
CC1CCC2C(=O)N(c3ccccc3OC(=O)c3ccccc3)C(=O)C2C1 (stereo not drawn),"inconclusive [inhibitor, partial curve]",–
CCCC[C@@H]1CNC(=S)N1CCCC,–,inactive: -16.3%
COC(=O)[C@@]1(Cc2ccccc2)[C@H]2C(=O)N(C)C(=O)[C@H]2[C@H]2CN=C(SCc3ccccc3)N21,"inconclusive [inhibitor, single point]",–
COc1cc2c(=O)n(Cc3ccccc3)c(=O)n(CC(=O)NCCc3ccccc3)c2cc1OC,active: 14.6 µM,–
COc1ccc(S(=O)(=O)N2CCCCCC2)cc1C(=O)N1CCCCC1,–,inactive: -17.7%
Cc1ccc(NC2=C(Cl)C(=O)OC2OC(=O)c2ccco2)cc1 (stereo not drawn),active: 16.4 µM,–
CCOC(=O)/C=C/CN(C(=O)OC(C)(C)C)S(=O)(=O)N1CC=CC1,–,inactive: 1.07%
CN(C)c1ncc2nc(-c3cc(F)cc(F)c3)c(=O)n(Cc3cccs3)c2n1,"inconclusive [inhibitor, full curve, poor fit]",–
C=CCOc1nc2c(c(=O)n(C)c(=O)n2C)n1Cc1ccccc1,active: 18.4 µM,–

SMILES,Potency,"activity change, negative = growth inhibition"
CCOc1ccc(NC(=O)CCc2c(C)nc3nc(C)nn3c2C)cc1,–,inactive: -18.4%
O=C(Cn1cc2c(n1)CCCC2)N1CCOCC1,–,inactive: 3.24%
CC(C)CNC(=S)NC(=O)c1ccc(Cl)cc1Cl,"inconclusive [inhibitor, single point]",–
CCNC(=S)Nc1ccc(N(c2ccccc2)C(C)C)cc1,active: 20.6 µM,–
CCOC(=O)C1=C(c2ccccc2)ON(C)C1c1ccccc1 (stereo not drawn),"inconclusive [inhibitor, single point]",–
CC(C)C1C(=O)N(Cc2cn(CC3CCCCC3)nn2)CCS(=O)(=O)N1Cc1ccc(-c2ccc(Cl)cc2)cc1 (stereo not drawn),active: 7.31 µM,–
Oc1cc2c(cc1O)C(c1ccccc1)CNCC2 (stereo not drawn),active: 25.9 µM,–
CCOc1ccc(C(=O)N2CCC(c3nnc(-c4ccccc4OC)o3)CC2)cc1,"inconclusive [inhibitor, single point]",–
COc1cc(OC)c2c(-c3cccc(-c4ccc(C(C)=O)cc4)c3)cc(=O)oc2c1,active: 0.92 µM,–
O=C(CCc1ccccc1)NCc1nc2cccnc2n1Cc1ccc(F)cc1,"inconclusive [inhibitor, partial curve, poor fit]",–
C[C@@H]1CN([C@@H](C)CO)C(=O)CCCn2nncc2CO[C@H]1CN(C)C(=O)c1ccncc1,–,inactive: -2.93%
CCOC(=O)c1c(CNCCN(CC)CC)n(C)c2cc(Br)c(OC)cc12,"inconclusive [inhibitor, single point]",–
COc1ccc([C@H]2C[C@@H](O)[C@H](n3cc(C4CC4)nn3)CN2C(=O)C2CCCCC2)cc1,"inconclusive [inhibitor, single point]",–
COc1ccccc1CNC(=O)c1ccc(Cn2c(SCc3ccccc3)nc3cccnc32)cc1,"inconclusive [inhibitor, single point]",–
COc1ccc(C(=O)C[n+]2cc(Br)cc3ccccc32)cc1[N+](=O)[O-],–,inactive: -8.51%
Cc1cc(C(=O)COC(=O)c2ccco2)c(C)n1Cc1ccco1,–,inactive: -14.6%
Fc1ccccc1-c1nc(NCCCN2CCOCC2)c2ccccc2n1,"inconclusive [inhibitor, single point]",–
COc1cccc(C(c2nnnn2-c2c(C)cccc2C)N2CCN(C/C=C/c3ccccc3)CC2)c1OC (stereo not drawn),"inconclusive [inhibitor, single point]",–
OC(c1ccc(-c2ccccc2)cc1)c1ncc(-c2cccc(F)c2)[nH]1 (stereo not drawn),"inconclusive [inhibitor, single point]",–
Cc1nn(-c2ccccc2)c(C)c1NC(=O)COc1ccc(F)cc1Cl,active: 20.6 µM,–
O=C(c1ccc(F)cc1)N1CCN(C2=NS(=O)(=O)c3ccccc32)CC1,"inconclusive [inhibitor, partial curve]",–
COc1cc(NC(=O)c2ccc(F)cc2)c(OC)cc1Cl,–,inactive: -7.6%
CCCCOc1ccc(/C=C/C(=O)OCC(=O)NC(=O)NCC(C)C)cc1OCC,"inconclusive [inhibitor, full curve]",–
